{
  "source": "the supplement of paper PMC11417369",
  "note": "Some of the results follow.",
  "data": [
    {"system": "PF3D7_0420300 AP2 domain 1 (GST-tagged)", "experiment": "gcPBM binding intensity (ln(normalized median fluorescence intensity)); higher = stronger DNA binding", "procedure,_shortened": "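An Agilent 4 × 180k array of primer-extended double-stranded 36-bp intergenic genomic probes, with negative controls, was incubated for 1 h with GST-tagged P. falciparum DNA-binding domains expressed in E. coli. Alexa488 anti-GST antibody detected bound protein, scanned at 488 nm. Binding intensity is the highest Masliner-normalised natural-log median intensity across replicate spots of either probe orientation.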", "values": [
      {"sequence": "TGTAATCTGGAGAAAAGTACACAGTATCTGGTAGCT [XGTACX_site2039]", "gcPBM binding intensity (ln)": 9.15},
      {"sequence": "TAACATTATATATATTGTACATAGTAAATATTATAT [XGTACX_site5421]", "gcPBM binding intensity (ln)": 9.13},
      {"sequence": "TTTAATTATTAAATGGTGCACTTGAAATATAAAAAT", "gcPBM binding intensity (ln)": 9.04},
      {"sequence": "CTTTTAATGGTGTAAAGTACTTTCTTAAGGTTCAAA [XGTACX_site8423]", "gcPBM binding intensity (ln)": 9.05},
      {"sequence": "TATACAACGTTAAGCACACACAAAAAAAATTTAATA [CACACA_site3086]", "gcPBM binding intensity (ln)": 9.67},
      {"sequence": "AAGTTATATAAAGGAACACACATTTGATTTTATTTT [CACACA_site6814]", "gcPBM binding intensity (ln)": 9.4},
      {"sequence": "ATATATGGGGCGCAGGAAAAGAGTTTTGGAAATAAA [CACACA_negctrl_site1265]", "gcPBM binding intensity (ln)": 9.2},
      {"sequence": "TGAATTCATAGCAGTTGTACATTGCATGAAGAAACG [XGTACX_site3312]", "gcPBM binding intensity (ln)": 9.04},
      {"sequence": "TGTTCCGAAGGTTGTACACACATAGAAATATACATA [CACACA_site3874]", "gcPBM binding intensity (ln)": 9.44},
      {"sequence": "TTTTTAAAACCTTACATACACACAAATATATATATA [CACACA_site678]", "gcPBM binding intensity (ln)": 9.4},
      {"sequence": "TCTTGTATACGGCATGCATGTTAGCACATACGGACA [TGCATGCA_site146]", "gcPBM binding intensity (ln)": 9.21},
      {"sequence": "AATACTTTTTATTTAGTGCATAAGAAAATATAAATC [GTGCAC_site9875]", "gcPBM binding intensity (ln)": 9.17},
      {"sequence": "TATAAAATATGTATGAGGAATAAAATTAAAAAAAAA [TGCATGCA_negctrl_site178]", "gcPBM binding intensity (ln)": 9.25},
      {"sequence": "AAAAAAAAAAATTCGGTGCAATGTAATTAATGTAAA [GTGCAC_site9588]", "gcPBM binding intensity (ln)": 9.41},
      {"sequence": "AATTGAAAAATCAGCACACACACAAATACATACATA [CACACA_site3232]", "gcPBM binding intensity (ln)": 9.92},
      {"sequence": "TGGTAATACACATACACACACACATACACATATATA [CACACA_site7312]", "gcPBM binding intensity (ln)": 10.2},
      {"sequence": "GCTATATATTACAATCGTACAATATATATATATATA [XGTACX_site6730]", "gcPBM binding intensity (ln)": 9.33},
      {"sequence": "ATATATATATATATTACACACATGTGCAATTAAAAT [CACACA_site1778]", "gcPBM binding intensity (ln)": 9.62},
      {"sequence": "AATATAAGAATATATACACACATAAATACATACATA [CACACA_site4128]", "gcPBM binding intensity (ln)": 9.94},
      {"sequence": "GACATTAAAATGAAATATACATATATATGTATATAT [TGCATGCA_negctrl_site601]", "gcPBM binding intensity (ln)": 9.1},
      {"sequence": "AAACAAAAAAACTACAGTACTTTTTTCAATTCCCCT [XGTACX_site7541]", "gcPBM binding intensity (ln)": 9.24},
      {"sequence": "AAAATTAACCGTAACACACACACATATATATATATA [CACACA_site3964]", "gcPBM binding intensity (ln)": 9.91},
      {"sequence": "TATATGTTTACTTAATGTACTTACATTTTTATAACA [XGTACX_site1100]", "gcPBM binding intensity (ln)": 9.24},
      {"sequence": "ACATAAATAATAAAAACACACATATGTACTTATATA [CACACA_site8581]", "gcPBM binding intensity (ln)": 9.59},
      {"sequence": "TTATTAATTTTTATTTTTAAATCACAAAAGATATAA [CACACA_negctrl_site787]", "gcPBM binding intensity (ln)": 8.69},
      {"sequence": "CATATTTGTATATGCACACATAAATTTTTCCATTTC [CACACA_site3467]", "gcPBM binding intensity (ln)": 9.33},
      {"sequence": "AAATTTTTAAACAGCACACATAAATATAATATATAT [CACACA_site2208]", "gcPBM binding intensity (ln)": 9.5},
      {"sequence": "TTTTTTTTTAATTATGCATGTAAATTATATATTATA [TGCATGCA_site335]", "gcPBM binding intensity (ln)": 9.1},
      {"sequence": "AATAAACATATATGTACACACATATACATATATATA [CACACA_site2848]", "gcPBM binding intensity (ln)": 9.51},
      {"sequence": "TATTTATAATTAAATACACACATATATTATATATTT [CACACA_site616]", "gcPBM binding intensity (ln)": 9.37},
      {"sequence": "TATACGCATATATAAACACACAAAAAAAAAAAAAAA [CACACA_site2026]", "gcPBM binding intensity (ln)": 9.19},
      {"sequence": "TTAGCTACACGCTAATGTACACAAATACAAAGAAAA [XGTACX_site3993]", "gcPBM binding intensity (ln)": 9.09},
      {"sequence": "TATATTAATTTATATCAACACACAAAATCAATATAC [CACACA_site8518]", "gcPBM binding intensity (ln)": 9.62},
      {"sequence": "ATAAAATATTATATATATATATATATATATATATAT [CACACA_negctrl_site215]", "gcPBM binding intensity (ln)": 8.94},
      {"sequence": "AAATTATTTATATGTTGTACTTATCCATTTTTATAA [XGTACX_site7441]", "gcPBM binding intensity (ln)": 9.33},
      {"sequence": "TATATTTATAGACACACACACAAAAAAAAAAAAAAA [CACACA_site6818]", "gcPBM binding intensity (ln)": 9.75},
      {"sequence": "TAATTTTTTTTATTATGTACTTAATAAATGTTAATT [XGTACX_site365]", "gcPBM binding intensity (ln)": 9.15},
      {"sequence": "CCTTTATAAAAAAGTAGTACACAATGAATTTATAAT [XGTACX_site5523]", "gcPBM binding intensity (ln)": 9.26},
      {"sequence": "CAATACTAATTGTATACACACAAAAATATACCATAT [CACACA_site3326]", "gcPBM binding intensity (ln)": 9.7},
      {"sequence": "AATTGATACCTTACATGTACATAATATATATAAATA [XGTACX_site321]", "gcPBM binding intensity (ln)": 9.23},
      {"sequence": "TTTTTACATACAAATTAACACACATATAGAAAAGAG [CACACA_site8570]", "gcPBM binding intensity (ln)": 9.58},
      {"sequence": "GAACCATTTTTTGGTATACACACGTAATTATATAAT [CACACA_site8552]", "gcPBM binding intensity (ln)": 9.31},
      {"sequence": "TGTTAATTAAAACATCATTAATATTATTAAAAATAC [XGTACX_negctrl_site509]", "gcPBM binding intensity (ln)": 8.99},
      {"sequence": "TCTTTTTTTACTTTCTTTTTTTTTTTTTTTTTTTTT [XGTACX_negctrl_site610]", "gcPBM binding intensity (ln)": 9.11},
      {"sequence": "CCTTATAAATACTGCACACATAAAATATATATTATC [CACACA_site2806]", "gcPBM binding intensity (ln)": 9.5},
      {"sequence": "TTTGTTCATATGAAATGTACAAAAAAAAAAAAAAAA [XGTACX_site8849]", "gcPBM binding intensity (ln)": 8.5},
      {"sequence": "TTTTATCGTTTTTTTTTTTTTTTTTTTTTTTTTTTT [CACACA_negctrl_site1309]", "gcPBM binding intensity (ln)": 9.28},
      {"sequence": "ATGTAGAAGTAATGCACACATATGTATTTATATATA [CACACA_site5391]", "gcPBM binding intensity (ln)": 9.4},
      {"sequence": "AAAAAAATTAATATGTCAGCACATATATACATACAT [GTGCAC_negctrl_site110]", "gcPBM binding intensity (ln)": 9.39},
      {"sequence": "TATATATATAAAAAAGCACACATACATACATACATA [CACACA_site8196]", "gcPBM binding intensity (ln)": 9.76},
      {"sequence": "ATAAACGTTTTTGAAAGTACATATCATTCATTTGAT [XGTACX_site200]", "gcPBM binding intensity (ln)": 9.18},
      {"sequence": "ATATAATATTTATATGTACACACCTTAATCCTTAAA [CACACA_site3555]", "gcPBM binding intensity (ln)": 9.28},
      {"sequence": "TTTTAACATATAAGTACACACATATAATCAATCATA [CACACA_site2325]", "gcPBM binding intensity (ln)": 9.53},
      {"sequence": "TGAATATATAAATATGCACACTTCTATTATAAATAA [CACACA_site5796]", "gcPBM binding intensity (ln)": 9.13},
      {"sequence": "TAACATATAAGTGTGTGTACGTACTGCGTATAATAT [XGTACX_site8597]", "gcPBM binding intensity (ln)": 9.8},
      {"sequence": "GACAAACAATATGAATGTACATAAAAATATAACTAA [XGTACX_site1167]", "gcPBM binding intensity (ln)": 9.34}
    ]}
  ]
}
